In ChEMBL document CHEMBL4888484, “Replenishing the malaria drug discovery pipeline: Screening and hit evaluation of the MMV Hit Generation Library 1 (HGL1) against asexual blood stage Plasmodium falciparum ,using a nano luciferase reporter read-out” (2022):
The campaign covered roughly 150,000 compounds. About 540 (0.36%) showed an effect of 50% or more. Some of the results follow.

Tested on: Plasmodium falciparum
Assay: Primary screen in NF54 nanoGlo assay, in single point, at 2uM, 72h; a lower Z score goes with more inhibition
Assay type: functional, Erythrocyte
Conditions: timepoint 72 hour

| SMILES | % Inhibition [%] | Z score |
| --- | --- | --- |
| CC1CC(NCC(c2ccco2)N2CCCC2)CN1C1CC1 (stereo not given) | 9 | -1.1 |
| C[C@H]1c2cccn2CCN1CC(=O)NCc1cccs1 | -12 | 1.16 |
| CCNC(=O)NCc1nc(-c2cccc(F)c2)c(-c2ccccn2)[nH]1 | -1 | 0.1 |
| COc1ncccc1C(=O)N1CCN(CC(C)C)[C@@H]2CS(=O)(=O)C[C@@H]21 | -18 | 2.35 |
| Cc1cc(NC(=O)[C@H]2CC(=O)N(c3cc(F)cc(F)c3)C2)ccc1Oc1cccnc1 | -5 | 0.6 |
| C[C@@H](N)C(=O)N(CCc1cccc(F)c1)C1CC1 | 7 | -1.06 |
| CO[C@H]1CCCOC12CCN(C(=O)CCCc1cn[nH]c1)CC2 | -3 | 0.5 |
| COCCCNC(=O)[C@H](C)n1ccc(C(F)(F)F)cc1=O | -4 | 0.57 |
| Cc1cnn(CCNc2ncnc3[nH]ccc23)c1 | 2 | -0.33 |
| COc1ccc(CCNC(=O)N2CCN(c3nccs3)CC2)cc1OC | 2 | -0.34 |
| O=C(NC1CCN(c2cnccn2)CC1)c1cc(Cl)c[nH]1 | -11 | 1.4 |
| CCCn1nc2c(c(C(F)F)cc(=O)n2CCC(=O)Nc2ncnc3c2cnn3C)c1C | 25 | -2.87 |
| COc1ccc(-n2nc(C#N)c(N3CCN(CCO)CC3)n2)cc1 | 13 | -1.6 |
| O=C(Cn1nc(-c2ccco2)n(C2CC2)c1=O)N1CCc2ccccc21 | -11 | 1.25 |
| C[C@@](CO)(NC(=O)NCCc1ccc2c(c1)CCO2)C1CC1 | -7 | 0.57 |
| Cc1c([C@@H]2CC(=O)Nc3c2c(=O)[nH]n3C2CCCC2)cnn1C | 9 | -1.47 |
| CCOc1c(Cl)cccc1CC(=O)NCc1cc(C)no1 | -1 | 0.23 |
| CC(C)c1nn(C)c(Cl)c1CNc1cccc(F)c1F | -4 | 0.6 |
| COCCc1nc(C2(Cn3ccnc3)CC2)n(Cc2cccc(Cl)c2)n1 | -8 | 1.69 |
| Cc1cc(Br)cn(Cc2nnc(C3CC3)n2C)c1=O | -13 | 2.5 |
| Cc1c(O)c2c(=O)n(C)c(=O)n(C)c2[nH]c1=O | -15 | 1.89 |
| Cc1cc(F)ccc1OCc1noc(-c2cccc3ccccc23)n1 | 3 | -0.5 |

| SMILES | % Inhibition [%] | Z score |
| --- | --- | --- |
| Cc1ccc(NC(=O)C[C@H]2Cc3c(n(Cc4ccccc4)c(=O)[nH]c3=O)NC2=O)cc1C | 30 | -3.4 |
| COc1ccc(NC(=O)c2nnn3c2CO[C@H](c2ccccc2)C3)cc1 | -9 | 1.03 |
| O=C([C@H](NCc1ccccc1CN1CCOCC1)c1ccccc1)N1CCCC1 | -6 | 0.74 |
| CCC(=O)N1CCc2ccc(OCc3nc(C(=O)NCCN(C)C)co3)cc2[C@@H]1c1cccc(C)c1 | -8 | 0.84 |
| O=C(C1C2CCCC21)N1CCOCC12CCCC2 (stereo not given) | -1 | 0.12 |
| CNc1cc(-c2cccc(C(=O)N3C[C@@H](C)O[C@@H](C)C3)c2)nc(N)n1 | -1 | 0.16 |
| Cc1nn(C(C)C)c(C)c1CNC(=O)N(C)C[C@H]1COCCO1 | -7 | 1.13 |
| N/C(CC(=O)Nc1ccccc1F)=N\O | -5 | 0.6 |
| CN(Cc1nnc2c(=O)n(C)ccn12)c1ccnc(C(C)(C)C)n1 | 13 | -1.51 |
| CCC(CC)CN1C[C@]23C=C[C@H](O2)C(C(=O)N2CCNC(=O)C2)C3C1=O (stereo not given in full) | -20 | 2.6 |
| CNC(=O)c1noc(CN(C)CC2(C)COC2)n1 | 1 | -0.11 |
| CCCOCCCNC(=O)c1cncn1-c1cccc(-c2ccc(OC)c(OC)c2)c1 | -9 | 0.94 |
| COc1ccc(-c2nn(-c3ccccc3)cc2CN2CCO[C@@H](C)C2)cc1 | -18 | 3.35 |
| COCCC1(c2noc(CCc3cncc(C)c3)n2)CCC1 | -9 | 1.16 |
| CCc1ccc(CNC(=O)c2c(C)oc3nc(C)nc(N4CCCC4)c23)cc1 | -6 | 1.05 |
| CN1C[C@]2(CCOC2)N(C2CCN(C(=O)c3ccc(F)cc3)CC2)C1=O | -12 | 1.66 |
| Cc1ccccc1CC1(N[C@@H](C)CNS(=O)(=O)C2CC2)CC1 | -17 | 1.86 |
| CO[C@H]1[C@H](NC(=O)C(C)C)c2ccccc2C12CCN(CC(C)C)CC2 | 2 | -0.36 |
| CN(C(=O)NCc1cscn1)C1CCCCCC1 | -4 | 0.45 |
| CCc1nnc(CNc2ccc(F)c(S(=O)(=O)NC)c2)s1 | -2 | 0.19 |
| CCOC1CC(CCNC(=O)N2CCO[C@H]3CCC[C@H]32)C1 (stereo not given in full) | 4 | -0.51 |
| O=C1CCC(c2ccccc2)(c2ccccc2)CN1C[C@@H]1CCCN1 | -5 | 0.64 |

| SMILES | % Inhibition [%] | Z score |
| --- | --- | --- |
| CN1C[C@@H](Nc2nc3ccccc3o2)CCC1=O | -17 | 1.98 |
| Cc1ccccc1Cn1nnc2cc(C(=O)N3CCN(c4ccccn4)CC3)ccc21 | -8 | 0.83 |
| C#CCN(C)[C@H]1CCc2c(c(C(=O)O)nn2CC=C)C1 | -7 | 0.85 |
| CC(=O)N1CCc2cc(S(=O)(=O)N(C)c3cnccn3)ccc21 | -6 | 0.52 |
| C[C@H](OC(=O)Cc1ccc(-c2ccccc2)cc1)C(=O)N1CCCc2ccccc21 | -6 | 0.87 |
| CN(CC1CCC1)C(=O)NCCCN1CCC[C@H]1C(N)=O | -6 | 0.9 |
| COCc1ccccc1CNC[C@@H](O)c1cc2ccccc2o1 | -1 | 0.08 |
| CCc1n[nH]c(NCc2ccc(OC)cc2)n1 | 18 | -2.12 |
| CCCN(C)C[C@H]1CCN(c2ccc3[nH]c(=O)ccc3n2)C1 | -4 | 0.59 |
| Cc1c(C(=O)NCc2ccccc2)nnn1-c1nccs1 | -13 | 2.47 |
| O=C(NCc1cc(F)cc(F)c1)c1csc(C(=O)NC2CCCC2)n1 | 27 | -3.95 |
| Cc1cc(CN2CCc3ccccc3[C@@H]2CO)nc(N(C)C)n1 | 2 | -0.18 |
| CO[C@H](c1nc(-c2cc3c([nH]c2=O)CCCC3)no1)C1CC1 | -15 | 1.56 |
| O=S(=O)(CCc1nc([C@H]2CCOC2)n[nH]1)c1ccccc1 | -4 | 0.87 |
| CC(=O)Nc1cccc(-c2noc(C3CCCC3)n2)c1 | -11 | 1.94 |
| Cc1cnc(C[C@H]2CCCN(S(=O)(=O)c3cccc4nsnc34)C2)n1C(C)C | 3 | -0.43 |
| Cn1ccc2ccc(CCC(=O)N3CCOCC3)cc21 | -11 | 1.27 |
| NC(=O)Cn1nc(-c2ccc(N3CCCCC3)cc2)ccc1=O | -13 | 1.71 |
| CCC(C)NC(=O)[C@H]1CN(C(=O)OC(C)(C)C)C[C@@H]1C(=O)NC(C)CC (stereo not given in full) | -8 | 1.11 |
| COC(=O)C[C@H](c1c(F)cccc1Cl)c1c(C)[nH][nH]c1=O | -6 | 1.14 |
| Cc1noc(CNC(=O)COc2cccc3c2ccn3C)n1 | 5 | -0.63 |
| CC(C)c1ccnc(N2CCN(C(=O)[C@@H]3CCCO3)CC2)n1 | -10 | 1.14 |

| SMILES | % Inhibition [%] | Z score |
| --- | --- | --- |
| COc1ccc(CN2C(=O)[C@@H]3CN(C(N)=O)CCN3C2=O)cc1Br | -7 | 1.12 |
| COc1ccc(OCc2nc(C(=O)N[C@@H](C)c3ccc(F)cc3)co2)cc1 | -1 | 0.1 |
| CC(=O)N1CCN(C(=O)[C@@H]2Cc3cc(Cl)ccc3O2)CC1 | 3 | -0.54 |
| OCC(CO)NC(C1CCNCC1)[C@H]1C[C@H](O)C1 (stereo not given in full) | -9 | 1.41 |
| CN(Cc1ncccn1)c1nc(C2CCCCC2)ns1 | 0 | -0.06 |
| CCn1c(C(=O)O)cc2c(-c3cccs3)nn(-c3ccccc3)c21 | -4 | 0.5 |
| CCOC1CC1C(=O)Nc1nc(CC)c(C)s1 (stereo not given) | -3 | 0.32 |
| COCCN(CCO)C(=O)Nc1ccccc1 | 0 | 0.06 |
| CCOc1ccc(-n2nnc(C)c2C(=O)N2CCN(C)CC2)cc1 | -16 | 1.39 |
| Cc1oc(C(C)(C)C)cc1CN1CCN(S(C)(=O)=O)CC1 | 4 | -0.63 |
| O=C(NCCCN1CCCCC1)C1CCN(c2nc3ccccc3n(Cc3ccccc3)c2=O)CC1 | -4 | 0.67 |
| Cc1nn(-c2ncc(NC(=O)c3cccnc3)cn2)c(C)c1C | 4 | -0.61 |
| Cc1cccc2nnc(N3CCC[C@H](C(=O)N4CCN(C)CC4)C3)n12 | -7 | 1.24 |
| Cc1nn(C)c(C)c1S(=O)(=O)N1CCN(C(=O)c2ccc(N(C)C)cc2)CC1 | -2 | 0.24 |
| CN(CCO)c1ccc(NCc2ccc(F)cc2Cl)nc1 | -9 | 0.83 |
| Cc1cc(Cl)cc2c1NC(=O)C21N2CCCC2C(C(=O)c2ccc3ccccc3c2)C12C(=O)Nc1ccccc12 (stereo not given) | -15 | 1.99 |
| O=C(c1ccncc1)N1CC[C@H](c2nc3ccccc3[nH]2)C1 | 23 | -2.58 |
| COC(=O)C[C@H]1CCN(c2ncnc(C)c2C)C1 | -17 | 1.87 |
| CN(C(=O)c1coc(C2CCCCC2)n1)[C@@H](CCO)c1ccccc1 | -9 | 1.09 |
